The target of data set [1] is T1, Phosphatidylinositol 4,5-bisphosphate 3-kinase catalytic subunit gamma isoform (Homo sapiens, UniProt P48736).
The target of data set [2] is T1, Phosphatidylinositol 4,5-bisphosphate 3-kinase catalytic subunit gamma isoform. This is another data set of the same source.
The nature of data set [3]: in vivo. To be noted: Sprague-Dawley, rat, po, 100 mg/kg.
Data set [4] is described as follows: in vivo. To be noted: Sprague-Dawley, rat, po, 100 mg/kg. The source holds these as a separate data set.
Data set [5] in a line: in vitro. To be noted: PAMPA.
Data set [6] is described as follows: physchem. The following applies: simulated gi fluid, pH 1.
Data set [7] can be described thus: in vivo. The following applies: Sprague-Dawley, rat, po, 10 mg/kg.
Data set [8] is described as follows: in vivo. The following applies: Sprague-Dawley, rat, po, 10 mg/kg. This is another data set of the same source.
Data set [9] is described as follows: in vivo. The following applies: Sprague-Dawley, rat, po, 10 mg/kg. This is another data set of the same source.
The nature of data set [10]: in vivo. The following applies: Sprague-Dawley, rat, iv, 1 mg/kg.
A short description of data set [11]: in vivo. To be noted: Sprague-Dawley, rat, po, 300 mg/kg.
The nature of data set [12]: physchem. The following applies: simulated gi fluid.
A short description of data set [13]: in vivo. The following applies: Sprague-Dawley, rat, po, 100 mg/kg. This is another data set of the same source.
Data set [14] can be described thus: physchem. The following applies: buffer, pH 6.8.
Data set [15] in a line: in vitro. To be noted: rat, microsomes.
Another data set concerns Blood. Kind of data set: tissue or blood. To be noted: Homo sapiens. The format is functional, tissue-based.
The nature of data set [16]: in vivo. To be noted: Sprague-Dawley, rat, po, 300 mg/kg. This is another data set of the same source.
Data set [17] in a line: physchem. The following applies: buffer, pH 6.8. This is another data set of the same source.
Data set [18] is described as follows: in vivo. To be noted: Sprague-Dawley, rat, po, 300 mg/kg. This is another data set of the same source.

≈ marks a conversion by molar mass, not a printed value.

T1 sequence (P48736 whole entry, canonical isoform): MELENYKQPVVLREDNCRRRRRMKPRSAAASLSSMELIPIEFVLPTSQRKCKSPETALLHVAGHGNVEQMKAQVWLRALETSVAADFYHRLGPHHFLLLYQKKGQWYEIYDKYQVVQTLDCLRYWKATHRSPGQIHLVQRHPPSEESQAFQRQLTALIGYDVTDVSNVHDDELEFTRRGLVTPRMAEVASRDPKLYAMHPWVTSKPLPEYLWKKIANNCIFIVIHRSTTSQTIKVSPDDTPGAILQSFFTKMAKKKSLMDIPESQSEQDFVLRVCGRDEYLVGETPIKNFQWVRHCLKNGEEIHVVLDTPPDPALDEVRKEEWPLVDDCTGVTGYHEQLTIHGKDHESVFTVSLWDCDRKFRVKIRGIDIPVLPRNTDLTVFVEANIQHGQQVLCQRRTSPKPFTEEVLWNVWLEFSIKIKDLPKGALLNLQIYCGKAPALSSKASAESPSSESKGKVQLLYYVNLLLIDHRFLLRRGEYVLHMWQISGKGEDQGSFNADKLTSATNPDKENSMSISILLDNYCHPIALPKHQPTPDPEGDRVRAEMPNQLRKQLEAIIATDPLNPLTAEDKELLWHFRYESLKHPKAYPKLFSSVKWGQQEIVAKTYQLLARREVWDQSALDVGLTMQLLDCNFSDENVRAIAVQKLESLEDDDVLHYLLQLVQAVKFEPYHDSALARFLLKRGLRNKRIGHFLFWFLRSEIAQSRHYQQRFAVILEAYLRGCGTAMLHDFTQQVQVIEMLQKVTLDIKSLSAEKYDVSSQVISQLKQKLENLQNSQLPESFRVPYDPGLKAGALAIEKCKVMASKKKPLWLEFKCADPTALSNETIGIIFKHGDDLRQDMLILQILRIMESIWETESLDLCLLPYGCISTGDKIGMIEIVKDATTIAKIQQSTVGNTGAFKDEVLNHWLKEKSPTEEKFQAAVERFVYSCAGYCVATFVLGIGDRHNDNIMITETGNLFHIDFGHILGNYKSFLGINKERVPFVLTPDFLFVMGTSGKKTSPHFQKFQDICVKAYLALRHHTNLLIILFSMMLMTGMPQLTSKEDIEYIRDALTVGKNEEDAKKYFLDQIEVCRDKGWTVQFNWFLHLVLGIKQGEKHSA

Take `Cc1ccc(S(=O)(=O)NCC(C)(C)O)cc1-c1cnc(N)c(-c2cnn(C)c2)c1`: the IC50 (commonly the concentration that gives 50% inhibition) in data set [1] was determined as 88 nM; in [2], 400 nM.
`Cc1ccc(S(=O)(=O)N[C@H]2CC[C@H](O)CC2)cc1-c1cnc(N)c(C(=O)C2CC2)n1`: the half-inhibitory concentration (IC50) in data set [2] was 15 nM.
`Cc1ccc(S(=O)(=O)NCC(C)(C)O)cc1-c1cnc(N)c(-c2cn(C)nc2C)n1`: the IC50 was 28 nM in data set [1] and 61 nM in data set [2].
In the same order, the values of `Cc1ccn(-c2nc(-c3cc(S(=O)(=O)NCC(C)(C)O)ccc3C)cnc2N)n1` are 36 nM and 240 nM.
Take `Cc1ccc(S(=O)(=O)NCC(C)(C)O)cc1-c1cnc(N)c(-n2cncn2)n1`: the IC50 in data set [1] is 36 nM; in [2], 350 nM.
With `Cc1cc(-c2cc(-c3cc(S(=O)(=O)NCC(C)(C)O)ccc3C)cnc2N)on1`, the figures for the bioavailability in the data set “in vivo [3]”, in the data set “in vivo [9]” and in “in vivo [16]” were 38%, 44% and 20%, respectively. In addition, the area under the curve AUC(0-t) (usually exposure summed from dosing to a finite time, without extrapolation to infinity) at 24 h is 79.9 µM·h in “in vivo [4]”, 9.35 µM·h in the data set “in vivo [8]” and 124 µM·h in “in vivo [18]”. The same compound displayed a Fa at 16 h, 500 µM in the data set “in vitro [5]” of 41%. The solubility (thermodynamic) (in general, solubility found after equilibrating the solid with the medium) in “physchem [6]” is 528 µg/mL (≈ 1270 µM); in “physchem [12]”, 626 µg/mL (≈ 1500 µM); in “physchem [14]”, 190 µg/mL (≈ 456 µM); in the data set “physchem [17]”, 360 µg/mL (≈ 864 µM). Also, the figures for the Cmax in the data set “in vivo [7]”, in the data set “in vivo [11]” and in the data set “in vivo [13]” were 1.49 µM, 9.54 µM and 7.18 µM, respectively. Further, the clearance (commonly the rate of elimination divided by the concentration) in the data set “in vivo [10]” amounted to 20 mL/min/kg. In addition, in the data set “in vitro [15]”, the microsomal CLint (as a rule, a measure of how fast metabolising enzymes remove a compound, apart from limits set by blood flow) at 0.5 h worked out at 46 µL/min/mg. For the same compound, 804 nM corresponded to half-maximal inhibition in the data set on Blood (IC50).
With `CCn1nnc(CCNC(=O)Nc2nc(C)c(-c3ccc(S(C)(=O)=O)c(F)c3)s2)n1`, the IC50 is 170 nM in data set [1] and 810 nM in data set [2].
The compound `Cc1ccc(S(=O)(=O)NCC(C)(C)O)cc1-c1cnc(N)c(-c2cn(C)nc2C)c1` had an IC50 in [1] of 330 nM.
`CNC(=O)c1nc(-c2ccc(Cl)c(S(=O)(=O)Nc3ccc(F)c(F)c3)c2)cnc1N`: the 50% inhibitory concentration (IC50) in [1] came to 110 nM; in [2], 352 nM.
With `Cc1ccc(S(=O)(=O)NCC(C)(C)O)cc1-c1cnc(N)c(-c2cnn(C)n2)n1`, the values for the IC50 in data set [1] and in data set [2] were 25 nM and 140 nM, respectively.

The record behind these values is ChEMBL document CHEMBL4831512 (J Med Chem, 2021).
